# Assay results: PubChem BioAssay (Tox21)
# Values joined by “and” are separate entries in the source; they are usually repeats but may differ in a detail not shown here. Equal entries are not always repeated. The shares of active, inactive and inconclusive entries below differ from those in the screen. For some assays here: Where the call is inconclusive, the potency comes from a doubtful curve fit. Active and inactive are the calls of the source. Unless noted, calls follow the shape of the dose curve; as a rule, active = well fitted curve in the direction sought with a large enough effect in the repeat runs; inconclusive = weak or mixed curves; inactive = no such curve, though single readings can be large; an effect the other way counts as inactive or inconclusive.
# How the values were obtained:
# [1] = molecular target: Glucocorticoid receptor (Homo sapiens) (UniProt P04150); assay: qHTS assay to identify small molecule antagonists of the glucocorticoid receptor (GR) signaling pathway (AID 720692; active = well fitted inhibition curve with a large enough effect in the signal ratio in the repeat runs, not every such curve was filed as active; inconclusive = weak or mixed curves, or effect the other way; inactive = no such curve, though single readings can be large or run the other way; the % refers to the signal ratio; also: potency is read from the fitted curve at half-maximal effect; as to activity change, negative = inhibition: % is scaled to controls: 0 for no effect and ±100 for the full control effect); settings: GR-bla HeLa, beta-lactamase FRET ratio, dexamethasone-stimulated, 18 h; activity change, negative = inhibition: at 58.5 µM (top of the series) unless noted
# Chain of UniProt P04150 (P04150 whole entry, looked up): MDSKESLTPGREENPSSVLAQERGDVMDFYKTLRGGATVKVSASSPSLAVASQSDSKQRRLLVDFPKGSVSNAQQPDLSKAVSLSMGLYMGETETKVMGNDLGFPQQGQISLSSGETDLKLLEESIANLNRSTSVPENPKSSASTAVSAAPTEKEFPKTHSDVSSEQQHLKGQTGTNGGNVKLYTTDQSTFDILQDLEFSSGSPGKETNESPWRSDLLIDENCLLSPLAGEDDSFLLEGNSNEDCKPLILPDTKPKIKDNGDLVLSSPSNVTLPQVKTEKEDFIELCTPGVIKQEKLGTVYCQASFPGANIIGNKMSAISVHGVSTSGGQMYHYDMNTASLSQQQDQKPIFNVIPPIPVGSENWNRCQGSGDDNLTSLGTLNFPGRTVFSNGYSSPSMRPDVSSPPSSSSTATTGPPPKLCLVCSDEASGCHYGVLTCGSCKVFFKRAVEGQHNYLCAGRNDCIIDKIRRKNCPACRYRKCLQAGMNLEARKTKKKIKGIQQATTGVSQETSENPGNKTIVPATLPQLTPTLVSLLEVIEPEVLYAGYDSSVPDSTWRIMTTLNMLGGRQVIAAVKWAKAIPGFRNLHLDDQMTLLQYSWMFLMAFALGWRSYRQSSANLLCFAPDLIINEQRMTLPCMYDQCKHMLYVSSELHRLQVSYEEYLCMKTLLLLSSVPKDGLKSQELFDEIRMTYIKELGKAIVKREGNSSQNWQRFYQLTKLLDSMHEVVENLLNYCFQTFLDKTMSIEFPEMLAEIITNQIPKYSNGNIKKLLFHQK
# Procedure, shortened: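 Fluorescence from cleaved LiveBLAzer B/G FRET substrate reports GRE-driven beta-lactamase in HeLa cells; compounds are tested against 5 nM dexamethasone (final) over 18 h at 37 C, substrate incubation 2 h at room temperature.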
# [2] = qHTS assay for identifying genotoxic compounds that show differential cytotoxicity against isogenic chicken DT40 cell lines with known DNA damage response pathways - wild type cell line (AID 743012); settings: DT40 wild type chicken cells viability, CellTiter-Glo, 40 h; activity change, negative = cytotoxicity: at 68.4 µM (top of the series) unless noted; also: nearly all actives have a fitted effect of over 60% in size; also: potency is read from the fitted curve at half-maximal effect
# Procedure, shortened: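 Quantitative HTS on parental DT40 cells: 40 h compound treatment at 37 C/5% CO2, with viability then determined by CellTiter-Glo luminescence. Values serve as the DNA repair-proficient reference for differential cytotoxicity.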
# [3] = qHTS assay to identify small molecule antagonists of the estrogen receptor alpha (ER-alpha) signaling pathway - cell viability counter screen (AID 743074; calls by dose curve;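 also: HEK293 cells carrying ER-alpha-UAS-bla reporter stimulated with 17beta-estradiol; potency is read from the fitted curve at half-maximal effect; nearly all actives have a fitted effect of over 45% in size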)
# [4] = molecular target: Peroxisome proliferator-activated receptor gamma (Homo sapiens) (UniProt P37231); assay: qHTS assay to identify small molecule antagonists of the peroxisome proliferator-activated receptor gamma (PPARg) signaling pathway (AID 743191; calls by dose curve; also: % is scaled to controls: 0 for no effect and ±100 for the full control effect; nearly all actives have a fitted effect of over 30% in size); settings: HEK293H PPARg-UAS-bla, beta-lactamase ratio, antagonist, 17 h; ratio activity, negative = inhibition: at 62.6 µM (top of the series) unless noted
# Chain of UniProt P37231 (P37231 whole entry, looked up): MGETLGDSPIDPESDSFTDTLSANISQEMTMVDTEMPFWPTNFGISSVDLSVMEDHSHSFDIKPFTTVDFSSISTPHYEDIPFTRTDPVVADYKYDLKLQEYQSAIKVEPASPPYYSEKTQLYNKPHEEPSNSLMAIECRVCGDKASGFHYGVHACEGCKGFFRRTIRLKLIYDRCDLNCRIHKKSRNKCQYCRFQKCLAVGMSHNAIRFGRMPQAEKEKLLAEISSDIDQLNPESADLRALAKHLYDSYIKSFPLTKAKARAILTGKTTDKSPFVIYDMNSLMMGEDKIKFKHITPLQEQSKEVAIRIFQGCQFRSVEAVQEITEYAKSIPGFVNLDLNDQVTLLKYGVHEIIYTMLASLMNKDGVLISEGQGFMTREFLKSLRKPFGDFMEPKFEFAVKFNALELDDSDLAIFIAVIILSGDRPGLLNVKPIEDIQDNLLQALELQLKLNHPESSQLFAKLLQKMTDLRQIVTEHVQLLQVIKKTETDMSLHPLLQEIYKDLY
# Procedure, shortened: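 GeneBLAzer PPARg UAS-bla HEK293H cells carrying a UAS-driven beta-lactamase reporter were plated at 3000 cells/well, preincubated 5 h at 37C, then given compound for 17 h at 37C; LiveBLAzer B/G FRET substrate was read after 1 h at room temperature.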
# [5] = molecular target: Vitamin D3 receptor (Homo sapiens) (UniProt P11473); assay: qHTS assay to identify small molecule antagonists of the vitamin D receptor (VDR) signaling pathway (AID 743223; active = well fitted inhibition curve with a large enough effect in the signal ratio in the repeat runs, not every such curve was filed as active; inconclusive = weak or mixed curves, or effect the other way; inactive = no such curve, though single readings can be large or run the other way; the % refers to the signal ratio; also: % is scaled to controls: 0 for no effect and ±100 for the full control effect); settings: VDR-UAS-bla HEK293T, beta-lactamase FRET ratio, 16 h; activity change, negative = inhibition: at 61 µM (top of the series) unless noted
# Chain of UniProt P11473 (P11473 whole entry, looked up): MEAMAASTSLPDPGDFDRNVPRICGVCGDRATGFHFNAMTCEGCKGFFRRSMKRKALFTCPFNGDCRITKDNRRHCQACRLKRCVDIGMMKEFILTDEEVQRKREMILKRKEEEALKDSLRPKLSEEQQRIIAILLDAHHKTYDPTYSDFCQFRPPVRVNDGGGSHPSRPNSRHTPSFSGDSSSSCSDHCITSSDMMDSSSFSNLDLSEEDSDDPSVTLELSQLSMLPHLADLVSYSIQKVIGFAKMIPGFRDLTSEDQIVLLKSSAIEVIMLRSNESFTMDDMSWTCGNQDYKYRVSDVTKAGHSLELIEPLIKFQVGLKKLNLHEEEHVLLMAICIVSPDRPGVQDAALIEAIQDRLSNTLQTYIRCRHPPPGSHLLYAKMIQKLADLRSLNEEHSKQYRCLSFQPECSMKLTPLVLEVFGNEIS
# Procedure, shortened: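 Agonist 1alpha,25-dihydroxyvitamin D3 (3 nM in well) was added with each compound to VDR-bla cells preincubated 4 h. Cells stood 16 h at 37C, then FRET substrate 2 h at room temperature; fluorescence intensity recorded.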
# [6] = qHTS assay to identify small molecule agonists of the AP-1 signaling pathway (AID 1159526; calls by dose curve; also: % is scaled to controls: 0 for no effect and ±100 for the full control effect); settings: ME-180 (cervical carcinoma) AP-1-bla reporter, beta-lactamase FRET ratio, 5 h; activation: at 76.8 µM (top of the series) unless noted
# [7] = qHTS assay to identify small molecule agonists of the RXR signaling pathway - cell viability counter screen (AID 1159529);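 also: HEK 293T cells carrying an RXR-alpha UAS beta-lactamase reporter; % is scaled to controls: 0 for no effect and ±100 for the full control effect; nearly all actives have a fitted effect of over 50% in size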
# Procedure, shortened: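 Same-well viability check after the LiveBLAzer FRET read: CellTiter-Glo added, luminescence measured after 30 min at room temperature. Reporter HEK 293T cells had been treated with compounds for 16 hr following a 5 hr preincubation.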
# [8] = qHTS assay to identify small molecule antagonists of the sonic hedgehog signaling (Shh) pathway (AID 1259369; calls by dose curve; also: nearly all actives have a fitted effect of over 45% in size; also: potency is read from the fitted curve at half-maximal effect; as to activity change, negative = inhibition: % is scaled to controls: 0 for no effect and ±100 for the full control effect)
# Procedure, shortened: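 Screening used 3T3Gli1-Luc cells at 2,000 per well, compounds delivered in DMSO, and conditioned medium as agonist stimulus; plates incubated 24hr at 37 C and 5% CO2 before a 30min luciferase step.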
# [9] = molecular target: Cytochrome P450 2D6 (Homo sapiens) (UniProt P10635); assay: Cytochrome P450 Family 2 Subfamily D Member 6 (CYP2D6) small molecule antagonists: luciferase reporter qHTS assay (AID 1671196); also: nearly all actives have a fitted effect of over 50% in size; also: potency is read from the fitted curve at half-maximal effect
# Procedure, shortened: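 Inhibition of CYP2D6 was gauged by loss of luminescence, since light produced tracks the luciferin generated from a proluciferin substrate. A 10 min room-temperature preincubation preceded 1 h NADPH-supported turnover.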
# [10] = qHTS assay for small molecule disruptors of the mitochondrial membrane potential (AID 720635); settings: HepG2 mitochondrial membrane potential, Mito-MPS dye ratio; also: potency is read from the fitted curve at half-maximal effect
# Procedure, shortened: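 HepG2 cells (2,000/well) attached overnight at 37C, then took compound for 1 hr at 37C, 5% CO2. Mito-MPS dye was added for 30 min; fluorescence was read at 490/535 nm (monomers) and 540/590 nm (aggregates).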
# [11] = qHTS assay for small molecule agonists of the antioxidant response element (ARE) signaling pathway (AID 743202; active = well fitted activation curve with a large enough effect in the signal ratio in the repeat runs, not every such curve was filed as active; inconclusive = weak or mixed curves, or effect the other way; inactive = no such curve, though single readings can be large or run the other way; the % refers to the signal ratio; also: potency is read from the fitted curve at half-maximal effect); settings: HepG2 ARE-bla reporter, beta-lactamase FRET, 16 h; activation: at 73.3 µM (top of the series) unless noted
# Procedure, shortened: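 Read-out: LiveBLAzer B/G FRET substrate fluorescence after 2 h at room temperature, following 16 h compound treatment at 37 C of HepG2 cells carrying an ARE-driven beta-lactamase reporter.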
# [12] = molecular target: Progesterone receptor (Homo sapiens) (UniProt P06401); assay: qHTS assay to identify small molecule antagonists of the progesterone receptor (PR) signaling pathway (AID 1346795; active = well fitted inhibition curve with a large enough effect in the signal ratio in the repeat runs, not every such curve was filed as active; inconclusive = weak or mixed curves; the % refers to the signal ratio; also: potency is read from the fitted curve at half-maximal effect); settings: PR-UAS-bla HEK293T, beta-lactamase FRET ratio, 16 h; activity change, negative = inhibition: at 92.4 µM (top of the series) unless noted
# Chain of UniProt P06401 (P06401 whole entry, looked up): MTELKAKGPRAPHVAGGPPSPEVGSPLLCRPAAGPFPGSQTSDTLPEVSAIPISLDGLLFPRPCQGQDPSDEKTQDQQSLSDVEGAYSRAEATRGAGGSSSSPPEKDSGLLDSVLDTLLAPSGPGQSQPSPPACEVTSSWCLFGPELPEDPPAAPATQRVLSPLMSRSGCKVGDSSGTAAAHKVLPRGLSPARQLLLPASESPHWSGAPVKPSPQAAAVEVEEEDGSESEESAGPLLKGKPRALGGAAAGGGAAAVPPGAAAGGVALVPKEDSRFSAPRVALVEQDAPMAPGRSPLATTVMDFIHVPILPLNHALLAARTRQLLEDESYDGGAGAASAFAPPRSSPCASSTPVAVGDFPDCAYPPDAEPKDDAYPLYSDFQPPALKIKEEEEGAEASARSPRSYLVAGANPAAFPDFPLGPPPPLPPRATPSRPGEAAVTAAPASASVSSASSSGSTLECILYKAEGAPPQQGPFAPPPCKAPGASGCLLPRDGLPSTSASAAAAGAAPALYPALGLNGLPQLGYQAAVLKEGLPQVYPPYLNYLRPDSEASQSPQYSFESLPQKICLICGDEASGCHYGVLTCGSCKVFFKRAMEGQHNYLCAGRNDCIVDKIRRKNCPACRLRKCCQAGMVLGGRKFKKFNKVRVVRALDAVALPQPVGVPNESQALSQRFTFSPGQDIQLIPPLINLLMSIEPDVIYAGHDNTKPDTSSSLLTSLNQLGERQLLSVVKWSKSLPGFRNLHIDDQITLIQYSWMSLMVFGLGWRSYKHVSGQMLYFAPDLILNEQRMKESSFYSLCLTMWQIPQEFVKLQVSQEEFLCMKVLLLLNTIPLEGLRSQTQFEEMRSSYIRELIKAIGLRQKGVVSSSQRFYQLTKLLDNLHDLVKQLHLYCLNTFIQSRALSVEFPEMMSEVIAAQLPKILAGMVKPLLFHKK
# Procedure, shortened: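 Screening used a GripTite HEK293T line with PR-responsive UAS-beta-lactamase. Cells were challenged with compound in the presence of 1 nM R5020 final for 16 hr at 37C; B/G FRET substrate, 2 hr room temperature, fluorescence.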
# [13] = qHTS assay to identify small molecule agonists of the progesterone receptor (PR) signaling pathway - cell viability counter screen (AID 1346799; calls by dose curve; also: nearly all actives have a fitted effect of over 45% in size; also: potency is read from the fitted curve at half-maximal effect)
# Procedure, shortened: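 Using the same plates as the PR reporter screen, HEK293T PR-UAS-bla cells received compounds for 16 hr at 37C and were then lysed with CellTiter-Glo; luminescence was read 30 min later at room temperature.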
# [14] = molecular target: Cytochrome P450 1A2 (Homo sapiens) (UniProt P05177); assay: Cytochrome P450 Family 1 Subfamily A Member 2 (CYP1A2) small molecule antagonists: luciferase reporter qHTS assay (AID 1671199); also: nearly all actives have a fitted effect of over 50% in size; also: potency is read from the fitted curve at half-maximal effect
# Chain of UniProt P05177 (P05177 whole entry, looked up): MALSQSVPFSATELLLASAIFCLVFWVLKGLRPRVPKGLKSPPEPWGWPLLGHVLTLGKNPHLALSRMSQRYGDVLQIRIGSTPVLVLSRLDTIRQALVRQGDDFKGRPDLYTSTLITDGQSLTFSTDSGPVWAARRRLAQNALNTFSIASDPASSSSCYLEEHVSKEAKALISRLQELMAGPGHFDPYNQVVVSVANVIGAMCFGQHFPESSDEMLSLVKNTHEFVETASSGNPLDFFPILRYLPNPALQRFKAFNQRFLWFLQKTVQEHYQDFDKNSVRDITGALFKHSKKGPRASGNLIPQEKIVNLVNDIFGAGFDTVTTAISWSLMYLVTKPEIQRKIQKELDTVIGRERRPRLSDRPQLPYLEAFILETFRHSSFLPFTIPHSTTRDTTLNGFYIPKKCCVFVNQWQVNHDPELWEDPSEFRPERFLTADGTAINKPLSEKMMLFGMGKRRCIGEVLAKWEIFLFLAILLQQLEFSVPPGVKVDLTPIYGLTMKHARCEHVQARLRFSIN
# Procedure, shortened: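 Signal from luciferin formed by CYP1A2 from a proluciferin substrate is read as luminescence, expressed in relative luminescence units. Compounds sit with enzyme 10 min, NADPH-driven reaction runs 1 h, all at room temperature.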
# [15] = qHTS assay for identifying genotoxic compounds that show differential cytotoxicity against isogenic chicken DT40 cell lines with known DNA damage response pathways - Rev3 mutant cell line (AID 743014); settings: chicken DT40 Rev3-/- viability, CellTiter-Glo, 40 h; activity, negative = cytotoxicity: at 68.4 µM (top of the series); also: nearly all actives have a fitted effect of over 55% in size; also: potency is read from the fitted curve at half-maximal effect
# [16] = qHTS assay to identify small molecule agonists of the farnesoid-X-receptor (FXR) signaling pathway - cell viability counter screen (AID 743218); settings: FXR-bla HEK293T viability, CellTiter-Glo luminescence, 16 h; viability change, negative = cytotoxic: at 62.6 µM (top of the series); also: nearly all actives have a fitted effect of over 45% in size; also: potency is read from the fitted curve at half-maximal effect
# Procedure, shortened: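 In GeneBLAzer FXR-UAS-bla HEK 293T cells, compounds act for 16 h at 37 C. Cell viability is then scored in the reporter wells by CellTiter-Glo, 30 min at RT, luminescence.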
# [17] = molecular target: Retinoic acid receptor RXR-alpha (Homo sapiens) (UniProt P19793); assay: qHTS assay to identify small molecule agonists of the RXR signaling pathway (AID 1159527; calls by dose curve; also: nearly all actives have a fitted effect of over 35% in size; also: potency is read from the fitted curve at half-maximal effect); settings: HEK293T RXRa-UAS-bla, beta-lactamase ratio, 16 h; activation: at 76.8 µM (top of the series) unless noted
# Chain of UniProt P19793 (P19793 whole entry, looked up): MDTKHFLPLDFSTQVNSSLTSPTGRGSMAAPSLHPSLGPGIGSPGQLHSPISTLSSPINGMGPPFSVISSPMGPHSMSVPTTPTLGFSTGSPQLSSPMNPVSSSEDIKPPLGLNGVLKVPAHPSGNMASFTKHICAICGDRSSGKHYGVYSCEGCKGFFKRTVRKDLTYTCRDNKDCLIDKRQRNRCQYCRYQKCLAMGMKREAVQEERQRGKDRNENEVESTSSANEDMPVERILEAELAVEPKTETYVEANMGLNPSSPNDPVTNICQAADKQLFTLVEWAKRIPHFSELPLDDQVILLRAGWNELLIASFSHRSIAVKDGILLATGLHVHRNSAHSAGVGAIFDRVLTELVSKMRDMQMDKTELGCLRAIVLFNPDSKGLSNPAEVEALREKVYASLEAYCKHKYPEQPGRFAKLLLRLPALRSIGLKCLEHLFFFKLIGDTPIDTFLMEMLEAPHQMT
# Procedure, shortened: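 Beta-lactamase reporter assay, agonist format. Engineered HEK 293T line, charcoal-stripped FBS at 2%, overnight (16 hr) exposure, fluorescence at 460 and 530 nm after 405 nm excitation.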
# [18] = molecular target: Cytochrome P450 2C19 (Homo sapiens) (UniProt P33261); assay: Cytochrome P450 Family 2 Subfamily C Member 19 (CYP2C19) small molecule antagonists: luciferase reporter qHTS assay (AID 1671197); also: potency is read from the fitted curve at half-maximal effect; nearly all actives have a fitted effect of over 65% in size
# Chain of UniProt P33261 (P33261 whole entry, looked up): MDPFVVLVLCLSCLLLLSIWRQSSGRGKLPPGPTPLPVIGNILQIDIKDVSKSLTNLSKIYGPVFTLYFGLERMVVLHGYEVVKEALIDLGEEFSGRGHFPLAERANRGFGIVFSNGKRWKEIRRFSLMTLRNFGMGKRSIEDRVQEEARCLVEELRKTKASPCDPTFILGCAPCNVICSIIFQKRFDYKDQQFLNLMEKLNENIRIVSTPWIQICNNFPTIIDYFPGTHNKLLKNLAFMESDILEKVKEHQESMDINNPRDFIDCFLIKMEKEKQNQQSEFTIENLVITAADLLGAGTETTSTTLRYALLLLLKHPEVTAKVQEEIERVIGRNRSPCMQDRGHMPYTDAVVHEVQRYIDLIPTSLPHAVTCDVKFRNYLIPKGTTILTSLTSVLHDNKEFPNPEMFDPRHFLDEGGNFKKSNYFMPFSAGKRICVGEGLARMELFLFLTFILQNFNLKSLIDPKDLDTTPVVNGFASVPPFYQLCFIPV
# Procedure, shortened: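 Light output is proportional to CYP2C19 activity: proluciferin substrate is converted to luciferin, then detected by a luciferin detection reagent that also stops the 1 h, 37C NADPH-driven reaction. Ketoconazole serves as positive control.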
# [19] = qHTS assay to identify small molecule antagonists of the thyroid receptor (TR) signaling pathway - cell viability counter screen (AID 743064); settings: GH3.TRE-Luc viability, CellTiter-Fluor, 24 h; activity change, negative = cytotoxic: at 70.3 µM (top of the series) unless noted; also: nearly all actives have a fitted effect of over 50% in size; also: potency is read from the fitted curve at half-maximal effect
# Procedure, shortened: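 Compounds were tested on GH3.TRE-Luc cells in the presence of T3 at 1 nM final. Following 23.5 h at 37 °C, cell viability was quantified by CellTiter-Fluor.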
# [20] = molecular target: Cytochrome P450 2C9 (Homo sapiens) (UniProt P11712); assay: Cytochrome P450 Family 2 Subfamily C Member 9 (CYP2C9) small molecule antagonists: luciferase reporter qHTS assay (AID 1671198); also: nearly all actives have a fitted effect of over 50% in size; also: potency is read from the fitted curve at half-maximal effect
# Chain of UniProt P11712 (P11712 whole entry, looked up): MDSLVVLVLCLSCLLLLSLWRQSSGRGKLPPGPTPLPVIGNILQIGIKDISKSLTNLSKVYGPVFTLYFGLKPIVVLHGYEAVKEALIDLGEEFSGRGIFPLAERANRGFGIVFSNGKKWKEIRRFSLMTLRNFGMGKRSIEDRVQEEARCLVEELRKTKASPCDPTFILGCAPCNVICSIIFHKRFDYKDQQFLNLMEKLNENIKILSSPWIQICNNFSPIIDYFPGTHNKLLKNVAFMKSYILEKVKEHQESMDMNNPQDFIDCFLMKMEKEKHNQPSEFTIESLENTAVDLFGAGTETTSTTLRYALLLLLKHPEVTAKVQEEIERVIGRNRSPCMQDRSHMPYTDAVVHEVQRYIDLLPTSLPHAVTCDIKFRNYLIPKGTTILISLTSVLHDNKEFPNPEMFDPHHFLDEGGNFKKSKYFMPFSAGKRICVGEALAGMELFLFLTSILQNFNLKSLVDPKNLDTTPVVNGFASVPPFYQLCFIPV
# Procedure, shortened: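 CYP2C9 activity was measured with a P450-Glo proluciferin substrate. Enzyme–substrate mix was held with compound for 10 min at room temperature, then NADPH regeneration solution was added for 1 h at 37C. Luciferin product was read as luminescence.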
# [21] = ratio activity, negative = MMP loss: at 83.2 µM (top of the series) unless noted
# Tags tell the direction and shape of the fitted curve or compound fluorescence and quenching.
structure (smiles),measurement,setting,value
CCNc1nc(Cl)nc(NC(C)C)n1,Potency,[1],inactive
same,Potency,[2],"inconclusive: 76.9 µM [cytotoxic, single point]"
same,Potency,[3],"inconclusive: 19.3 µM [cytotoxic, full curve]"
same,Potency,[4],inactive
same,Potency,[5],inactive
same,Potency,[6],inactive
same,Potency,[7],inactive
same,Potency,[8],"inconclusive: 1.91 µM [inhibitor, full curve] and inconclusive: 1.72 µM [inhibitor, full curve]"
same,Potency,[9],"inconclusive: 39.5 µM [inhibitor, partial curve]"
O=C(O)C(F)(F)C(F)(F)C(F)(F)C(F)(F)C(F)(F)C(F)(F)F,Potency,[10]; [21],"inconclusive: 0.386 µM [activator, single point]"
same,Potency,[2],"inconclusive: 48.6 µM [rising, partial curve, poor fit]"
same,Potency,[3],"inconclusive: 54.9 µM [rising, single point]"
same,"ratio activity, negative = inhibition",[4],inconclusive: 21.1%
same,Potency,[11],inconclusive: 54.5 µM
same,Potency,[6],inactive
same,Potency,[8],inactive
same,Potency,[12],inactive
same,Potency,[13],active: 27.3 µM
same,Potency,[9],inactive
same,Potency,[14],"inconclusive: 89.4 µM [inhibitor, single point]"
Cc1ccc(S(=O)(=O)N[C@@H](CCCCN)C(=O)CCl)cc1,"ratio activity, negative = MMP loss",[10]; [21],inconclusive: -12.5%
same,Potency,[1],"inconclusive: 2.39 µM [inhibitor, partial curve, poor fit]"
same,Potency,[15],active: 10.6 µM
same,Potency,[16],inactive
same,Potency,[6],inactive
same,Potency,[13],"inconclusive: 18.8 µM [cytotoxic, single point]"
same,Potency,[14],inactive
COc1cnc(OC)n2nc(NS(=O)(=O)c3c(OCC(F)F)cccc3C(F)(F)F)nc12,Potency,[10]; [21],inactive
same,Potency,[4],inactive
same,Potency,[16],"inconclusive: 0.174 µM [rising, full curve, poor fit]"
same,Potency,[6],inactive
same,Potency,[17],"inconclusive: 27.5 µM [activator, partial curve, poor fit]"
same,Potency,[18],"inconclusive: 79.6 µM [inhibitor, single point]"
same,Potency,[14],"inconclusive: 79.6 µM [inhibitor, partial curve, poor fit]"
CC(Cc1ccc(O)cc1)NCC(O)c1cc(O)cc(O)c1 (stereo unspecified),Potency,[1],inactive
same,Potency,[19],inactive
same,Potency,[3],"inconclusive: 26.8 µM [rising, single point]"
same,Potency,[11],inactive
same,Potency,[16],"inconclusive: 0.596 µM [rising, partial curve, poor fit]"
same,"activity change, negative = inhibition",[5],inconclusive: 15.1%
same,activation,[6],inconclusive: 11.9% [at 35.3 µM]
CNC(=O)O/N=C/C(C)(C)S(C)(=O)=O,Potency,[3],"inconclusive: 24.6 µM [cytotoxic, single point]"
same,"ratio activity, negative = inhibition",[4],inconclusive: 7.58%
same,activation,[11],inconclusive: 21.9% [at 94.8 µM]
same,Potency,[6],inactive
same,activation,[17],inconclusive: 4.86%
same,Potency,[12],inactive
same,Potency,[13],inactive
same,Potency,[18],"inconclusive: 89.7 µM [inhibitor, single point]"
same,Potency,[20],"inconclusive: 71.3 µM [inhibitor, partial curve, poor fit] and inactive"
N#CN=C(N)N,"ratio activity, negative = MMP loss",[10]; at 83.2 µM (top of the series),inactive: 8.78%
same,"ratio activity, negative = MMP loss",[10]; [21],inconclusive: 3.61% [at 95.3 µM]
same,Potency,[15],"inconclusive: 69.7 µM [rising, partial curve, poor fit]"
same,Potency,[19],"inconclusive: 8.78 µM [rising, full curve, poor fit]"
same,activation,[11],inconclusive: 7.47%
same,Potency,[16],"inconclusive: 55.9 µM [rising, single point]"
same,Potency,[6],inactive
same,Potency,[8],inactive
same,Potency,[12],inactive
same,Potency,[18],"inconclusive: 90.9 µM [inhibitor, single point]"
same,Potency,[14],inactive
CN(N=O)C(N)=O,"ratio activity, negative = MMP loss",[10]; [21],inconclusive: 13.3%
same,Potency,[15],inactive
same,Potency,[3],"inconclusive: 4.9 µM [cytotoxic, full curve]"
same,activation,[6],inconclusive: 4.64%
same,Potency,[20],inactive
Cc1ncc2n1-c1ccc(Cl)cc1C(c1ccccc1F)=NC2,Potency,[10]; [21],"inconclusive: 5.31 µM [activator, full curve]"
same,Potency,[1],active: 16.9 µM
same,Potency,[2],"inconclusive: 33.5 µM [cytotoxic, partial curve, poor fit]"
same,Potency,[19],"inconclusive: 33.5 µM [cytotoxic, single point]"
same,Potency,[3],"inconclusive: 8.49 µM [rising, full curve, poor fit]"
same,activation,[11],inconclusive: -32.4%
same,Potency,[5],inactive
same,Potency,[6],inactive
same,Potency,[7],inactive
same,Potency,[8],"inconclusive: 13.3 µM [inhibitor, partial curve]"
same,Potency,[12],inconclusive: 29.8 µM
same,Potency,[13],"inconclusive: 21.1 µM [rising, partial curve]"
same,Potency,[14],"inconclusive: 27.5 µM [inhibitor, partial curve]"
CCN(CCO)CCn1c(Cc2ccccc2)nc2c1c(=O)n(C)c(=O)n2C,Potency,[10]; [21],inactive
same,Potency,[2],inactive
same,Potency,[19],"inconclusive: 0.473 µM [rising, full curve]"
same,Potency,[4],inactive
same,Potency,[11],inactive
same,Potency,[16],"inconclusive: 9.44 µM [rising, partial curve, poor fit]"
same,Potency,[6],inactive
